# Assay results as given in EP0534568B1 (ENIRICERCHE S.p.A., dated 1996).
# T1: growth hormone receptor in microsomal liver membranes of a pregnant rabbit (rabbit, UniProt P19941 19-638)
# T1 construct: whole, on cells; The receptor stood in a liver microsomal membrane preparation (250 µg of proteins per tube), not on intact cells and not purified; also called membrane receptor; its own receptor
# T1 sequence (looked up): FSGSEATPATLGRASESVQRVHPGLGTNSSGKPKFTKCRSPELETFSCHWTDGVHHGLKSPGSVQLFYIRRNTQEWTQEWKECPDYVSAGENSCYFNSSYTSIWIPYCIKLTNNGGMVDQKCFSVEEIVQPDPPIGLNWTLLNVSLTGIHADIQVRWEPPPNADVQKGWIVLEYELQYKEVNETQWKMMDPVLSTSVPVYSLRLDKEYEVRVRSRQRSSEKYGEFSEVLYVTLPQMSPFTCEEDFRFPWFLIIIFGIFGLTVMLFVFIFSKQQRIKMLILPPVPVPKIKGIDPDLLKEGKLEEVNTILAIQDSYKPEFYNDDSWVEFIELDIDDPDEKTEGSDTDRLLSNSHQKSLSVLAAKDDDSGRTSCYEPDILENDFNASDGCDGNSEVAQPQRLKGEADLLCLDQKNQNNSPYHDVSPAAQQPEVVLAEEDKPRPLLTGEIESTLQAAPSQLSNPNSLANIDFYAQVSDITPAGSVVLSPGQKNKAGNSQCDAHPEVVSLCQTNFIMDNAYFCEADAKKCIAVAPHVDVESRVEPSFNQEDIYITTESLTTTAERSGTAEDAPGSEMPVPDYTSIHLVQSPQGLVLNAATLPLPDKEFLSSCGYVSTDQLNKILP
# B1: hGH mutant Arg134→Ala (ligand)
# chain: not shown
# notes: mature; also called Ala134; product of pSM386
# B2: hGH mutant Arg134→Thr (ligand)
# chain: not shown
# notes: mature; also called Thr134; product of pSM388
# B3: hGH mutant Arg134→Phe (ligand)
# chain: not shown
# notes: mature; also called Phe134; product of pSM389
# B4: hGH mutant Arg134→Leu (ligand)
# chain: not shown
# notes: mature; also called Leu134; Arg134-->Leu hGH
# B5: hGH mutant Arg134→His (ligand)
# chain: not shown
# notes: mature; also called His134; product of pSM391
# B6: hGH mutant Arg134→Pro (ligand)
# chain: not shown
# notes: mature; also called Pro134; product of pSM390
# Molecular target: T1, growth hormone receptor in microsomal …
# Experiment: radioreceptor assay, displacement of radioiodinated hGH from pregnant rabbit liver microsomal membranes
row,IC50 [µg/mL],Binder
1,0.0255,B1
2,0.0212,B2
3,0.0225,B3
4,0.0205,B4
5,0.02,B5
6,0.0234,B6

# Molecular target: T1, growth hormone receptor in microsomal …
# Experiment: radioreceptor assay, displacement of radioiodinated hGH from pregnant rabbit liver microsomal membranes; relative to hGH = 100
row,% of activity VS 212/5 [%],Binder
1,74.6,B1
2,83.8,B2
3,79.1,B3
4,87,B4
5,95.2,B5
6,81.2,B6
